Data on 1 molecule can be found in patent publication US12534541B2, “Anti-PTK7 antibody and uses thereof” (MABCARE THERAPEUTICS, priority 2023, dated 2026).

Conditions in all cases: immobilized protein
The subject of one assay is monkey PTK7 protein. In words: Relative binding activity to monkey PTK7 by ELISA. The method, then: (§1) Human PTK7 protein (Catalog No. PT7-H52H3, Acrobiosystems), monkey PTK7 protein (Catalog No. PT7-C52H3, Acrobiosystems), and murine PTK7 protein (Catalog No. PT7-M52H3, Acrobiosystems) were incubated at 4° C. overnight and immobilized onto a 96-well plate. The plate was then blocked by incubating at 37° C. with 1% BSA in PBS for 1 h. After blocking, the plate was washed 3 times with PBST (PBS containing 0.05% Tween 20). Serial dilutions of anti-PTK7 antibody as prepared in Example 2 of the present disclosure was prepared in a binding buffer (PBS containing 0.05% Tween20 and 0.5% BSA) and incubated with the immobilized proteins at 37° C. for 1 h. After binding, the plate was washed 3 times with PBST, incubated with peroxidase-labeled donkey anti-human IgG (Jackson ImmunoResearch) diluted at 1/15,000 in the binding buffer at 37° C. for 1 h, washed again, developed with TMB and terminated with 1M H2SO4. The absorbance at 450 nm-620 nm was measured.
(An ELISA detects its analyte on a solid surface through an enzyme-linked reagent.)

A further assay concerns the target T1, murine PTK7 protein (Mus musculus, UniProt Q8BKG3).
T1 construct: purchased Acrobiosystems PT7-M52H3
T1 sequence (Q8BKG3 23-1062): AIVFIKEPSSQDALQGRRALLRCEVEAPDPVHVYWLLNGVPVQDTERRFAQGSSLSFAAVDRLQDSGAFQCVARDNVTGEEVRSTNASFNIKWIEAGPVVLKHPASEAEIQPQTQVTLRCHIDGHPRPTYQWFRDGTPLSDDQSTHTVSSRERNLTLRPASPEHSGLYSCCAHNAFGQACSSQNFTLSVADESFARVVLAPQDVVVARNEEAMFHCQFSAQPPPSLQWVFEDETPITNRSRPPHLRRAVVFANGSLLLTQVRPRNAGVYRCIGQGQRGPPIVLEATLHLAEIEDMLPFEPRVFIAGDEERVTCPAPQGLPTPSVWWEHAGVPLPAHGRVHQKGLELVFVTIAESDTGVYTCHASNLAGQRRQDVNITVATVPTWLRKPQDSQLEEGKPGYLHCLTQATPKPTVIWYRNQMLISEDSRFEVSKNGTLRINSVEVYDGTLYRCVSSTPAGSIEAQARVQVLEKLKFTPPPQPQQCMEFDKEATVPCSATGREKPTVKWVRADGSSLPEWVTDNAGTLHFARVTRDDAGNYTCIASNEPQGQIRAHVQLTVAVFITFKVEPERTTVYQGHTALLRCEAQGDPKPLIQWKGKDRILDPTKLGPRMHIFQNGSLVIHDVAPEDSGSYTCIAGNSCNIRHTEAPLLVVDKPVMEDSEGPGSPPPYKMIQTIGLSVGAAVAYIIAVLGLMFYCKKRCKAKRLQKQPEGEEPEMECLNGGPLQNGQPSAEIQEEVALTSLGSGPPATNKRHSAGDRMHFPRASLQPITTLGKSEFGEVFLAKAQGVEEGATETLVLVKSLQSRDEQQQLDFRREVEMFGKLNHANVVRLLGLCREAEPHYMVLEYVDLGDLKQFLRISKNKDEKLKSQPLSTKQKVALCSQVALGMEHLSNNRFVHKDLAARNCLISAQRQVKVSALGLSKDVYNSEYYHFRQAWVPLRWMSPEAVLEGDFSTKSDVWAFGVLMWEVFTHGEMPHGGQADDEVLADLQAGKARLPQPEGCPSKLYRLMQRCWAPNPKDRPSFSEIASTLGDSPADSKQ
In words: Relative binding activity to murine PTK7 by ELISA. The method, then:
as §1

In another assay the target is T2, Human PTK7 protein (Homo sapiens, UniProt Q13308).
T2 construct: purchased Acrobiosystems PT7-H52H3
T2 sequence (Q13308 31-1070): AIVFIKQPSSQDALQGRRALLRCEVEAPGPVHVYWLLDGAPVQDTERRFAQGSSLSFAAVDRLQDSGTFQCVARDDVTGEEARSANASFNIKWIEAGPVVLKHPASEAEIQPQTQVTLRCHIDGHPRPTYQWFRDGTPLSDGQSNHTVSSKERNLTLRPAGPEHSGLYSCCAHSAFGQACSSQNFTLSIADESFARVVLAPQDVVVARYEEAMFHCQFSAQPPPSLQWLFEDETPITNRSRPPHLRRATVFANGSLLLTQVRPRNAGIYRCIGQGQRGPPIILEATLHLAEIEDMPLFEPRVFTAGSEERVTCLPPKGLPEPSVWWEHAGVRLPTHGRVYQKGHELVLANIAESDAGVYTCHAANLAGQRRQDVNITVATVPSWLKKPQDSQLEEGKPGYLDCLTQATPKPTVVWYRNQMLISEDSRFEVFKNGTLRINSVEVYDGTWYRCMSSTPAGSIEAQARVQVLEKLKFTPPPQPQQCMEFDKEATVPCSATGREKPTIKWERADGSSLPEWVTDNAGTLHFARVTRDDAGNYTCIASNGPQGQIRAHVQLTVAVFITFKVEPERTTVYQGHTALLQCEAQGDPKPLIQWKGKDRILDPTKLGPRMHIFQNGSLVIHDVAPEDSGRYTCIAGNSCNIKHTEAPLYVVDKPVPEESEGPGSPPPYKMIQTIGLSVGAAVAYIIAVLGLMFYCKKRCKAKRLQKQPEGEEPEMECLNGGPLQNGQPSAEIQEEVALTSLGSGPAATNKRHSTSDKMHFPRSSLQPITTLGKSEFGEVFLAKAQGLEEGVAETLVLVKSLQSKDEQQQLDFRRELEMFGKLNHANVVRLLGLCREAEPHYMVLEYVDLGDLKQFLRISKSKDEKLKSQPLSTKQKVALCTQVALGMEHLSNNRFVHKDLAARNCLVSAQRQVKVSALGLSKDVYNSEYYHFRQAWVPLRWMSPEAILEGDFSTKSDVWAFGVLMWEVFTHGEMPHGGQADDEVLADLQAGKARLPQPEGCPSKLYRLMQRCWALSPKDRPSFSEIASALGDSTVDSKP
In words: Relative binding activity to human PTK7 by ELISA. The method, then: as §1

B1: h6M24: positive control anti-PTK7 antibody, heavy and light chains SEQ ID NOs: 26 and 27 (antibody)
heavy: QVQLVQSGPEVKKPGASVKVSCKASGYTFTDYAVHWVRQAPGKRLEWIGVISTYNDYTYNNQDFKGRVTMTRDTSASTAYMELSRLRSEDTAVYYCARGNSYFYALDYWGQGTSVTVSS[letters of human IgG1 constant region omitted]
light: EIVLTQSPATLSLSPGERATLSCRASESVDSYGKSFMHWYQQKPGQAPRLLIYRASNLESGIPARFSGSGSGTDFTLTISSLEPEDFAVYYCQQSNEDPWTFGGGTKLEIKRTVAAPSVFIFPPSDEQLKSGTASVVCLLNNFYPREAKVQWKVDNALQSGNSQESVTEQDSKDSTYSLSSTLTLSKADYEKHKVYACEVTHQGLSSPVTKSFNRGEC
Consider B1, for which the “binding to monkey PTK7 protein” value in the assay with monkey PTK7 protein was “specifically bind”. Further, the “cross-reaction with mouse PTK7” value in the assay with murine PTK7 protein was “neither ch13 nor h6M24 antibodies cross-react”. Further, the “binding to human PTK7 protein” value with Human PTK7 protein is given as “specifically bind”.
